Article PMC4336329 (PLoS ONE, 2015)
About 2,200 (0.71%) of roughly 310,000 compounds showed an effect of 50% or more. The effect is printed as a negative number. The list shows a part of the results.

Each compound was assayed against human ether-à-go-go-related gene (hERG) potassium channel (human, UniProt Q12809) (assay: primary screen, population patch clamp on CHO cells stably expressing hERG).
Sequence of human ether-à-go-go-related gene (hERG) potassium channel (Q12809 whole entry, looked up): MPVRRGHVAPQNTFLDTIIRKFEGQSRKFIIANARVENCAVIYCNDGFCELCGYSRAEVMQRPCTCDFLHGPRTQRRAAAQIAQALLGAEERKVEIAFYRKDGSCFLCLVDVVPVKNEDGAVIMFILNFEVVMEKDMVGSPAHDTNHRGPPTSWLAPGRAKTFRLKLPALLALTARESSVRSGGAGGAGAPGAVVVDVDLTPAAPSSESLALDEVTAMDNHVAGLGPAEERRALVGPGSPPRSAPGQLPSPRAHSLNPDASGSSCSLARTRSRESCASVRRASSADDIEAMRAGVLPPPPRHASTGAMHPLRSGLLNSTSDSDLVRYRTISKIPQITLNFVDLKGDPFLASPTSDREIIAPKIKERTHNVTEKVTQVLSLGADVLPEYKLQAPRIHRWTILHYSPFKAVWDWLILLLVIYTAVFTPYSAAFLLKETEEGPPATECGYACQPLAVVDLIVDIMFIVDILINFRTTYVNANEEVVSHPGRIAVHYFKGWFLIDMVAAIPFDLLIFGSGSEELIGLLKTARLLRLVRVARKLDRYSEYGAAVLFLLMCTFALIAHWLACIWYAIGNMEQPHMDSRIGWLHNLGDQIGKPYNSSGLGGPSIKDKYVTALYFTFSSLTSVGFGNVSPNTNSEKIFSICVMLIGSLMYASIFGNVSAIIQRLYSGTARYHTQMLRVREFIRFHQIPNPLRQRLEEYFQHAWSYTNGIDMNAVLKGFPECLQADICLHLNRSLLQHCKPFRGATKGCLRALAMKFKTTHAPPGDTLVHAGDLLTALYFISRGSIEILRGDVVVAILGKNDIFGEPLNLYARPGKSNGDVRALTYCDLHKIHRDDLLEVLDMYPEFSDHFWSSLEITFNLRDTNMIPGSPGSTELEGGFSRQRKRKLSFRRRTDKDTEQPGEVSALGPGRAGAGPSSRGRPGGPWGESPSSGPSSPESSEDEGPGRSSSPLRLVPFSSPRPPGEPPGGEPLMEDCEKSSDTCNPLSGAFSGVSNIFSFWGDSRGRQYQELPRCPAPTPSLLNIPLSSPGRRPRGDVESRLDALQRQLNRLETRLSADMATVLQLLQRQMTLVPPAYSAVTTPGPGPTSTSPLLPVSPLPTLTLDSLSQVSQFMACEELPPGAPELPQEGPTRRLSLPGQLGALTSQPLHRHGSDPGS
With `CCN(CC)CCCNC(=O)CC1Oc2ccc(C)cc2NC1=O` (stereo not shown) the “hERG current change (%, negative = inhibition) at 1uM” value was 6.63%.
`COCCN(CCOC)S(=O)(=O)c1ccc(C(=O)Nc2sc3c(c2C(N)=O)CCCCC3)cc1` was tested, and the “hERG current change (%, negative = inhibition) at 1uM” value was 14.5%.
For `CC(C)(C)c1cc[n+](CC(=O)Nc2cc(C(F)(F)F)ccc2N2CCOCC2)cc1.[Cl-]`, the “hERG current change (%, negative = inhibition) at 1uM” value was 5.44%.
In the case of `O=C(NCc1cc([N+](=O)[O-])ccc1O)c1cccnc1Sc1ccccc1`, the “hERG current change (%, negative = inhibition) at 1uM” value is reported as -1.12%.
With `COc1ccccc1N1CCN(/N=C/c2ccc(C(=O)O)cc2)CC1` the “hERG current change (%, negative = inhibition) at 1uM” value was 8.32%.
With `CCCSc1nnc2n(N)c(=O)c3ccccc3n12` the “hERG current change (%, negative = inhibition) at 1uM” value was 11.3%.
For `COC(=O)c1[nH]c2c(c1C(=O)OC)CCc1ccccc1-2`, the “hERG current change (%, negative = inhibition) at 1uM” value was 10.1%.
For `Cc1ccc(NC(=O)CCc2ccc(C)o2)c(Br)c1`, the “hERG current change (%, negative = inhibition) at 1uM” value was 9.76%.
With `CCC(C)(C)NC(=O)c1ccc2c(c1)N(CC(=O)N1CCCC1)C(=O)C(C)(C)O2` the “hERG current change (%, negative = inhibition) at 1uM” value was 13.3%.
With `CC(C)(C)C(=O)Nc1nnc(-c2ccncc2)o1` the “hERG current change (%, negative = inhibition) at 1uM” value was 13.4%.
`CCN(CC(=O)NCc1cccs1)C(=O)/C=C/c1ccc(Cl)c(Cl)c1` was tested, and the “hERG current change (%, negative = inhibition) at 1uM” value was -1.36%.
In the case of `CCCCN(C(=S)Nc1ccccc1)C1CCS(=O)(=O)C1` (stereo not shown), the “hERG current change (%, negative = inhibition) at 1uM” value is reported as 10.4%.
With `COc1ccc(NC2=C(C(C)=O)C(c3ccc(OC)c(OC)c3)C(C(C)=O)C(C)(O)C2)cc1` (stereo not shown) the “hERG current change (%, negative = inhibition) at 1uM” value was 4.5%.
For `Cc1c(C2Nc3ccccc3NC3=C2C(=O)CC(C)(C)C3)cnn1C` (stereo not shown), the “hERG current change (%, negative = inhibition) at 1uM” value was 11.3%.
With `C=CC(=O)Oc1ccc(N2Cc3ccccc3C2=O)cc1` the “hERG current change (%, negative = inhibition) at 1uM” value was 18.5%.
In the case of `CCn1ccnc1CN1CCCC(CO)(Cc2cccc(OC)c2)C1` (stereo not shown), the “hERG current change (%, negative = inhibition) at 1uM” value is reported as -1.48%.
`Cc1c(N=NC2=C(O)CC(C)(C)CC2=O)c(=O)n(-c2ccccc2)n1C` was tested, and the “hERG current change (%, negative = inhibition) at 1uM” value was 9.85%.
For `COc1ccc(C(=O)c2cc([N+](=O)[O-])ccc2N2CCOCC2)cc1`, the “hERG current change (%, negative = inhibition) at 1uM” value was 5.63%.
For `N#Cc1ccc(NC(=O)Nc2ccc(Oc3ccc(NC(=O)Nc4ccc(C#N)cc4)cc3)cc2)cc1`, the “hERG current change (%, negative = inhibition) at 1uM” value was 11.8%.
In the case of `Cc1cccc(OCC(=O)N/N=C/c2cccn2C)c1`, the “hERG current change (%, negative = inhibition) at 1uM” value is reported as 4.13%.
`O=C(c1ccccc1F)N(Cc1cccnc1)Cc1cc2cc3c(cc2[nH]c1=O)OCCO3` was tested, and the “hERG current change (%, negative = inhibition) at 1uM” value was 5.77%.
`CCCCCC(=O)N1CCN(c2ccc(C(C)=O)cc2F)CC1` was tested, and the “hERG current change (%, negative = inhibition) at 1uM” value was -26.4%.
With `CC(C)Oc1ccc(C(CC(=O)O)NC(=O)c2cccs2)cc1` (stereo not shown) the “hERG current change (%, negative = inhibition) at 1uM” value was 5.87%.
With `CN(C)CC1CSCCC1(O)c1ccc(Cl)cc1.Cl` (stereo not shown) the “hERG current change (%, negative = inhibition) at 1uM” value was 8.16%.
For `COc1ccc(NC(=S)c2ccc(N(C)C)cc2)cc1`, the “hERG current change (%, negative = inhibition) at 1uM” value was -2.35%.
`COc1ccc(OC)c(NC(=O)CN(Cc2ccccc2)S(C)(=O)=O)c1` was tested, and the “hERG current change (%, negative = inhibition) at 1uM” value was -0.446%.
For `CCOC(=O)c1ccc(NC(=O)c2nc[nH]c2C(=O)N[C@@H](CC(C)C)C(=O)OCc2ccccc2)cc1`, the “hERG current change (%, negative = inhibition) at 1uM” value was -0.812%.
For `O=CNCc1nc2ccccc2n1CCc1ccccc1`, the “hERG current change (%, negative = inhibition) at 1uM” value was 15.1%.
In the case of `COc1ccccc1NC(=O)CSc1nc(O)cc(=O)n1-c1ccccc1OC`, the “hERG current change (%, negative = inhibition) at 1uM” value is reported as 13.4%.
In the case of `Cc1cc(C)n(-c2nc(-n3nc(C)cc3C)c3c4c(sc3n2)COC(C)(C)C4)n1`, the “hERG current change (%, negative = inhibition) at 1uM” value is reported as 13.8%.
With `O=C(NCCc1csc(-c2cccnc2)n1)c1ccc(Cl)cc1` the “hERG current change (%, negative = inhibition) at 1uM” value was 7.35%.
`Cn1cc(/C=N/NC(=O)c2cc3cc(Br)ccc3o2)c2ccccc21` was tested, and the “hERG current change (%, negative = inhibition) at 1uM” value was 9.31%.
For `CCCc1n[nH]c2c1C(=O)CC(C)(C)C2`, the “hERG current change (%, negative = inhibition) at 1uM” value was 10.9%.
In the case of `CC1CCCCN1CCNC(=O)CC1Oc2ccccc2NC1=O` (stereo not shown), the “hERG current change (%, negative = inhibition) at 1uM” value is reported as 5.21%.
In the case of `Cn1c(/C(C#N)=C(\O)COc2ccc3ccccc3c2)nc2ccccc21`, the “hERG current change (%, negative = inhibition) at 1uM” value is reported as 12.8%.
With `CC(=O)Oc1ccc2c(=O)oc(-c3ccccc3C)nc2c1` the “hERG current change (%, negative = inhibition) at 1uM” value was 12.8%.
With `CN(C)S(=O)(=O)c1ccc(N2CCCC2)c(C(=O)NCCc2ccc(F)cc2)c1` the “hERG current change (%, negative = inhibition) at 1uM” value was 2.97%.
In the case of `O/N=C/c1ccc(OCc2ccccc2)c(Br)c1`, the “hERG current change (%, negative = inhibition) at 1uM” value is reported as 18%.
With `CC1=CC(C)(C)N2C(=O)C3(NCCc4c3[nH]c3ccccc43)c3cc(C)cc1c32` (stereo not shown) the “hERG current change (%, negative = inhibition) at 1uM” value was 20.4%.
`CCn1cc(C(=O)OCC(=O)c2cc(C)n(-c3ccc(OC(F)F)cc3)c2C)c(=O)c2ccc(C)nc21` was tested, and the “hERG current change (%, negative = inhibition) at 1uM” value was -2.3%.
With `CCC1CCc2sc(C(=O)N(C)CC(=O)Nc3cccc(OC)c3)cc2C1` (stereo not shown) the “hERG current change (%, negative = inhibition) at 1uM” value was 9.94%.
In the case of `COCc1[nH]nc2c1C(c1ccccc1Cl)C(C#N)=C(N)O2` (stereo not shown), the “hERG current change (%, negative = inhibition) at 1uM” value is reported as 13.1%.
With `C=CCN1C(=O)C2C3CC(=O)C(c4ccccc43)C2C1=O` (stereo not shown) the “hERG current change (%, negative = inhibition) at 1uM” value was 20.4%.
With `COc1ccc2oc(=O)c(C(=O)N3c4ccccc4CC3C)cc2c1` (stereo not shown) the “hERG current change (%, negative = inhibition) at 1uM” value was 0.806%.
For `C=C(C)Cn1c(CNC(C)=O)nc2ccccc21`, the “hERG current change (%, negative = inhibition) at 1uM” value was 2.79%.
For `O=C(O)COc1ccc(Oc2ccccc2)cc1`, the “hERG current change (%, negative = inhibition) at 1uM” value was 5.78%.
`Cc1cc2nc(SCCN3CCCC3)[nH]c2cc1C` was tested, and the “hERG current change (%, negative = inhibition) at 1uM” value was 2.01%.
For `COc1ccc(CNC(=O)CN2C(=O)c3ccccc3C2=O)cc1`, the “hERG current change (%, negative = inhibition) at 1uM” value was -0.406%.
In the case of `CC(=O)Nc1ccc(NC(=O)CSc2ccc(-c3ccco3)nn2)cc1`, the “hERG current change (%, negative = inhibition) at 1uM” value is reported as 6.63%.
For `O=C(Nc1ccccc1N1CCOCC1)c1cc(-c2ccco2)nc2ccccc12`, the “hERG current change (%, negative = inhibition) at 1uM” value was 2.65%.
In the case of `Cc1cccc(CSc2cccc3cccnc23)c1`, the “hERG current change (%, negative = inhibition) at 1uM” value is reported as 5.34%.
With `NNc1cc(C(=O)O)ccc1Cl` the “hERG current change (%, negative = inhibition) at 1uM” value was 11%.
`Cn1cccc1CNC(=O)Nc1ccccc1` was tested, and the “hERG current change (%, negative = inhibition) at 1uM” value was 4.71%.
For `COc1ccc(OC)c(S(=O)(=O)N2CCC(C(=O)NCC3CCCO3)CC2)c1` (stereo not shown), the “hERG current change (%, negative = inhibition) at 1uM” value was 8.54%.
`CN(C)C1=NC[C@H](Cc2ccccc2)N1CC1CCCCC1` was tested, and the “hERG current change (%, negative = inhibition) at 1uM” value was 8.53%.
For `CC(C)CN(C(=O)c1cccc(S(=O)(=O)N2CCCCC2)c1)C1CCS(=O)(=O)C1` (stereo not shown), the “hERG current change (%, negative = inhibition) at 1uM” value was 9.3%.
With `O=c1[nH]c(N2CCN(Cc3ccc4c(c3)OCO4)CC2)nc2c1CCC2` the “hERG current change (%, negative = inhibition) at 1uM” value was 9.05%.
With `COc1cc(S(=O)(=O)N2CCOCC2)ccc1NC(=O)CSc1n[nH]c(=O)[nH]c1=O` the “hERG current change (%, negative = inhibition) at 1uM” value was 7.05%.
